Reference: PMC12040169 (PLOS Biology, 2025)
The other results are listed elsewhere or left out.

tested on: T1, C. trachomatis L2/434/Bu expressing GFP (CTL2-GFP); parameters: species or system HeLa; C. trachomatis total inclusion area by high-content imaging, normalised to DMSO; settings: total inclusion area; 28.5 h, 10 µM; inhibitor
T1 construct: L2/434/Bu GFP intracellular growth in HeLa cells
Procedure, shortened: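 After bulk GFP and resorufin fluorescence reads, cells were fixed, stained with Hoechst and imaged by high-content microscopy. Inclusion area and number (GFP) stood in for chlamydial growth, nuclei count (Hoechst) for host cell viability. MICs were derived as for the bulk readout.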

| SMILES | % of control remaining |
| --- | --- |
| COC(=O)c1ccc(CO)nc1 [CBK261376C] | 105.183 |
| O=C1N[C@]2(CCc3ccccc31)CN(CC1CC=CCC1)C[C@H]2CO (stereo partly shown) [CBK284794] | 125.073 |
| O=C(COc1cccc2c1CCNC2=O)Nc1ccccc1 [CBK287730] | 99.4679 |
| CN1CCN(c2cc(-c3ccncc3)nc3ccccc23)CC1 [CBK050976B] | 83.1029 |
| CC(=O)Nc1ccc(OCC(O)CNC2CCCC2)cc1 (stereo not shown) [CBK267857C] | 134.346 |
| O=C1CNC(=O)N1CC(O)Cn1c2ccc(Cl)cc2c2cc(Cl)ccc21 (stereo not shown) [CBK265792] | 84.9646 |
| O=C(O)CC(NC(=O)OCc1ccccc1)c1ccccc1 (stereo not shown) [CBK265351] | 90.2948 |
| COc1cccc(OC)c1OCCN1CCC(NC(=O)Nc2ccc(Cl)cn2)CC1 [CBK051515] | 107.71 |
| Cc1nc(NC(=O)C2Cc3ccccc3S2)sc1-c1n[nH]c(=S)n1C (stereo not shown) [CBK295337] | 105.899 |
| CCN(CC)Cc1cc([N+](=O)[O-])cc2c1OCOC2 [CBK296613] | 113.6 |
| CC1CCN(Cc2ccc(-c3cn(CC(=O)NCc4ccc(Br)cc4)nn3)cc2)CC1 [CBK164709] | 40.3048 |
| O=C(C1=C(O)C(=O)N(CCCn2ccnc2)C1c1ccccc1)c1cccs1 (stereo not shown) [CBK264484] | 108.333 |
| COc1ccc(S(=O)(=O)Nc2ccsc2C(=O)N2CCN(C)CC2)cc1OC [CBK004627] | 108.436 |
| OCCCNc1nccnc1-c1cccnc1 [CBK037277] | 92.3728 |
| O=C(Nc1ccc(F)cc1)c1sccc1NS(=O)(=O)c1cc(F)c(Br)cc1F [CBK004586] | 74.0211 |
| CCCc1nc(NC(CCO)c2ccc(C)cc2)c2cnn(C)c2n1 (stereo not shown) [CBK307309] | 84.9258 |
| Cn1nc2c(c1C(=O)NCC(C)(C)N1CCCCC1)CCCC2 [CBK281878] | 114.123 |
| CN(C)c1ccc(/C=N/NC(=O)CSc2nnc(-c3ccccc3)n2-c2ccccc2)cc1 [CBK262263] | 119.453 |
| Cc1nn(C)cc1C(C)NC(=O)c1ccc2c(c1)ncn2C (stereo not shown) [CBK281732] | 102.722 |
| Cc1cc(NC(=O)C2CCN(C)CC2)c2ccccc2n1 [CBK122730] | 108.506 |
| Cc1ccc(-c2nc(C)c(C(=O)Nc3ccc(-n4cncn4)nc3)s2)o1 [CBK297770] | 98.8935 |

| SMILES | % of control remaining |
| --- | --- |
| c1cnc(N2CCCC2)c(OC2CCCNC2)n1 (stereo not shown) [CBK115283] | 116.703 |
| O=C(O)[C@@H]1CSC(c2ccc(C(F)(F)F)cc2)N1 (stereo partly shown) [CBK286921] | 92.1074 |
| Cc1ccc(S(=O)(=O)N2CCOCC2)cc1S(=O)(=O)N1CCOCC1 [CBK261733] | 101.579 |
| CCC(=O)N1CCC2(CC1)Nc1ccccc1-n1cccc12 [CBK283488] | 93.5056 |
| COc1cccc(-c2cccc(C3CCCN(C(=O)Cc4c[nH]c5ccccc45)C3)n2)c1 (stereo not shown) [CBK286207] | 92.5603 |
| CN1C(=O)C(C)(C)Oc2ccc(C(O)c3ccco3)cc21 (stereo not shown) [CBK284469] | 92.6351 |
| CSCCC(NC(=O)NCCc1ccccc1)c1nnc2ccccn12 (stereo not shown) [CBK304417] | 84.2075 |
| COc1cc(OC)nc(C(NC(=O)C2CCN(Cc3nccs3)CC2)c2ccc(Cl)cc2)n1 (stereo not shown) [CBK148217] | 109.04 |
| CCSc1nnc(NC(=O)c2cnc(SC)nc2CC)s1 [CBK291250] | 120.077 |
| CCc1nnc(N/N=C/c2cc(Cl)c(OCc3ccccc3F)c(OC)c2)n1N [CBK278282C] | 88.7598 |
| CCNC(=O)Nc1nc2cccnc2cc1-c1ccc(OC)c(C)c1 [CBK081241] | 124.731 |
| CC(=O)Nc1cccc(C(=O)OCC(=O)N2CCCCC2C)c1 (stereo not shown) [CBK305868] | 24.6378 |
| CN1C2CCC1CC(OC(=O)c1cccnc1)C2 (stereo not shown) [CBK026000] | 79.2222 |
| O=C1CCCN1c1ccc(S(=O)(=O)NC2C3CCCCC32)cc1 (stereo not shown) [CBK282842] | 82.0337 |
| CC1=NC(O)(C(F)(F)F)C(c2ccccc2)S1 (stereo not shown) [CBK009121] | 34.1511 |
| Clc1ccc(CSc2nccnc2N2CCCC2)cc1 [CBK107177] | 56.3302 |
| Cn1cc(-c2ccncc2)c(C2CCCCN2C(=O)c2ccccc2)n1 (stereo not shown) [CBK283444] | 103.296 |
| C/C(Cl)=C\CN1C(=O)C(=O)c2cc(C)ccc21 [CBK087601] | 86.0469 |
| COc1ccc(CC(=O)N2CCCc3c(cnn3C)C2)cc1F [CBK285285] | 90.5036 |
| Cc1cc(-c2nnc(SCc3ccc(Cl)cc3)n2C)no1 [CBK067720] | 91.6156 |
| O=S(=O)(Nc1cc(F)cc(F)c1F)c1cc(OC2CCNCC2)c2occc2c1 [CBK082814C] | 100.16 |

| SMILES | % of control remaining |
| --- | --- |
| COc1ccccc1CN(C(=O)Nc1ccccc1Cl)C1CC1 [CBK298332] | 96.1656 |
| CCCCNC(=O)NS(N)(=O)=O [CBK022990] | 36.9682 |
| c1ccc(CCNc2c3c(nc4ccccc24)CCC3)cc1 [CBK263693C] | 85.052 |
| CCN1CCC(CC(=O)N2CCc3[nH]c4ccccc4c3C2)CC1 [CBK281846] | 125.988 |
| COc1ccccc1N1CCN(c2c(C)c(C)nc3cc(-c4nccn4C)nn23)CC1 [CBK286182] | 118.203 |
| CCCSCC(=O)Nc1nn(C)c2cccc(N3CCOCC3)c12 [CBK307354] | 73.2979 |
| N#Cc1c(NC(=O)c2cc(S(=O)(=O)N3CCOCC3)cs2)sc2c1CCCC2 [CBK264532] | 129.506 |
| COc1ccc(Cl)cc1NC(=O)C1CC(=O)N=C(N2CCOCC2)N1 (stereo not shown) [CBK268893] | 98.9917 |
| COc1ncc(-c2nccnc2NCc2cccs2)c(OC)n1 [CBK037318] | 106.036 |
| COc1ccc(C(=O)C2=C(O)C(=O)N(Cc3cccnc3)C2c2ccc(N(C)C)cc2)cc1 (stereo not shown) [CBK264635] | 112.054 |
| COc1cc(/C=N\NC(=O)CN2CCN(C)CC2)cc2c1OCO2 [CBK261503] | 86.9372 |
| CN(C)CCCN(Cc1ccco1)Cc1cccn1-c1ccccn1 [CBK283180] | 80.4987 |
| Cc1ccc(C)c(N2CCN(CCCNC(=S)Nc3ccc(Cl)cc3Cl)CC2)c1 [CBK267951] | 69.6285 |
| O=C(O)C1=CC(c2c[nH]nc2-c2ccc(F)cc2)n2ncnc2N1 (stereo not shown) [CBK286906] | 72.3547 |
| CC(=O)N[C@@H](CC[S+](C)[O-])C(=O)N1CCC2(C/C=C/C[C@@H]3COCC[C@@H]3NC(=O)[C@@H](CC(C)C)NC2=O)CC1 (stereo partly shown) [CBK292192] | 87.6985 |
| COC(=O)NC(=O)N1CCN(c2c(Cl)cncc2Cl)CC1 [CBK043398] | 76.3245 |
| COc1cccc2sc(NC(=O)CCCN(C)C)nc12 [CBK149261] | 74.9947 |
| Cc1ccc(Cc2cnc(NC(=O)N3CCC(O)C(F)(F)C3)s2)cc1C (stereo not shown) [CBK304120] | 46.3259 |
| Cc1ccc(OCCO)cn1 [CBK001786] | 100.448 |
| c1csc(CNc2nc3ccccc3n2CCN2CCOCC2)c1 [CBK262462] | 95.3527 |
| Cc1ccc(S(=O)(=O)Nc2ccc(Nc3cc(-c4ccsc4)ncn3)cc2)cc1 [CBK037792] | 73.5226 |

| SMILES | % of control remaining |
| --- | --- |
| Cc1cc(F)ccc1C(=O)NCC1CCN(c2cnn(C)c(=O)c2)C1 (stereo not shown) [CBK307097] | 59.6855 |
| c1coc(-c2nccnc2NCc2ccncc2)c1 [CBK038059] | 103.447 |
| O=C(O)c1ccccc1OCCCCOc1cccc2cccnc12 [CBK264136] | 105.282 |
| C=CCOc1ccc(OCCN2CC(C)OC(C)C2)cc1 (stereo not shown) [CBK269646C] | 101.51 |
| CC(C)NC(=O)NC[C@H]1C[C@@H]2CCN1C[C@@H]2c1cc(-c2ccc(F)cc2)nn1C [CBK289111] | 110.362 |
| CC(=O)N[C@H](Cc1c[nH]c2ccccc12)C(=O)N1CCN(c2ccc(C)cc2)CC1 [CBK091333] | 88.6469 |
| CNC(=O)C1(Cc2ccc(-c3ccccc3)cc2)CCN(C(=O)Cc2ccccc2)CC1 [CBK285764] | 57.2184 |
| CN(C(=O)Cn1cccn1)c1nc2c(s1)CC(c1ccccc1)CC2 (stereo not shown) [CBK305173] | 10.6281 |
| CCC1=C(c2ccc(Cl)cc2)CCC(C(=O)NCCCN(C)C)C1C (stereo not shown) [CBK012578] | 3.648 |
| COCc1nnc(SCC(=O)N2CCc3ccccc32)n1-c1ccccc1 [CBK269739] | 97.5017 |
| COCC(C)NC(=O)Cn1cccc2cc(C(F)F)nc1-2 (stereo not shown) [CBK285011] | 98.6087 |
| CC(=O)NC[C@H]1CN(c2ccc(C3=CC[S+]([O-])CC3)c(F)c2)C(=O)O1 (stereo partly shown) [CBK017555] | 0.1165 |
| COc1ccc(-c2cc(=O)oc3cc(OC(C)C(=O)O)ccc23)cc1 (stereo not shown) [CBK286696] | 74.8776 |
| CC(NC(C)(C)C)C(O)COc1ccc(Cl)c2c1C1CCC2CC1 (stereo not shown) [CBK017752C] | 49.0845 |
| CC1CN(C)C(c2ccccc2)C(C)C12NC(=O)NC2=O (stereo not shown) [CBK288428] | 142.279 |
| Cc1cccc(OCC(=O)Nc2ccc(S(=O)(=O)N3CCOCC3)cc2)c1 [CBK264110] | 95.7477 |
| O=C(CCSS(=O)(=O)O)N1CCc2ccccc21 [CBK260892N] | 102.919 |
| CN1CCC2(CC1)NCCc1c2ccn1S(=O)(=O)c1ccc(I)cc1 [CBK061945C] | 8.188 |
| CN(C(=O)CN1CCCC1Cn1cccn1)C1(C#N)CCCCC1 (stereo not shown) [CBK304571] | 43.8865 |
